# Measurements from PubChem BioAssay AID488969 (Vanderbilt High Throughput Screening Facility, 2010).
# Whole data set: some 110,000 compounds, median “z-score” near -0.1, cut for the highest 2% near 2. The list shows a part of the results. Calls of active or inactive are those of the source.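 How the source made its calls: active means z-score in the third read window above 3 or below -3; inactive means the rest.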
# Target: Metabotropic glutamate receptor 8 (Rattus norvegicus) (UniProt P70579)
# Assay: rat mGluR8 modulators via GIRK flux, primary screen, cell-based, thallium flux, HTS (AID 488969)
# Details: HEK293 rat mGluR8, GIRK (G protein-gated inwardly rectifying potassium channel) thallium flux, FluoZin2; at 10 µM; stronger effect = higher value; submaximal glutamate (EC20) added with thallium
# UniProt P70579, sequence (P70579 whole entry, looked up): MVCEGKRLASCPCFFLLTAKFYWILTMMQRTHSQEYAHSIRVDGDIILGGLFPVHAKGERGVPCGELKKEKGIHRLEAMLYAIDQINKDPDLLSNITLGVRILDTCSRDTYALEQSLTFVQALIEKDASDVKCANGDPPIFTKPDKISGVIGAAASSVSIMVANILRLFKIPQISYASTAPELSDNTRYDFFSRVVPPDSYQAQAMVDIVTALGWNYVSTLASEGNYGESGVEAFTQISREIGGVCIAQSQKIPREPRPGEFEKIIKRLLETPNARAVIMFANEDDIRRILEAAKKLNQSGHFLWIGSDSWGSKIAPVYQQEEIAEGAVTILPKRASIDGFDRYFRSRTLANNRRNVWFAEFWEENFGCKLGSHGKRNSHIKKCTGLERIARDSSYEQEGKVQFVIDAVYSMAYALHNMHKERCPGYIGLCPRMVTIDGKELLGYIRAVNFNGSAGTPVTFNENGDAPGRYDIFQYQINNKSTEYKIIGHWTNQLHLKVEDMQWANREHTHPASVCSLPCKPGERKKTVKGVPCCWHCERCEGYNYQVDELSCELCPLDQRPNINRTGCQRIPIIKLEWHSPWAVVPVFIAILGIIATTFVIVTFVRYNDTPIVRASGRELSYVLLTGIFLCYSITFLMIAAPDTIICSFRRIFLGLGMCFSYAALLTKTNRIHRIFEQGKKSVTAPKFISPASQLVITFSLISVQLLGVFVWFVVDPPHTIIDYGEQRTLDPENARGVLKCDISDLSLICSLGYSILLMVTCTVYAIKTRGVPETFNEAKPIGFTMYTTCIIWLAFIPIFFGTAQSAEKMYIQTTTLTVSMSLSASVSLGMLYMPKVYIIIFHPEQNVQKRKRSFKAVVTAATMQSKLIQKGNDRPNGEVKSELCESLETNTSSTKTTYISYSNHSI
row,Structure (SMILES),z-score
1,Cn1c(=O)c2ncn(CC(=O)NCCOc3ccccc3)c2n(C)c1=O,-0.0185
2,Cc1cc(C(=O)CSc2nnc(-c3ccccc3)n2C)c(C)n1C,-0.546
3,c1cnc(N2CCSCC2)nc1,-0.316
4,CCOc1ccc2cc(C#N)c(SCC(=O)N3CCCC3)nc2c1,-0.694
5,N=c1ncn(CC(O)CN2CCOCC2)c2nc(N3CCOCC3)[nH]c12 (stereo not given),-0.0814
6,CC1CCCN(C(=O)C2CCCN(S(=O)(=O)c3cccc4nsnc34)C2)C1 (stereo not given),0.195
7,O=C(C1=C(O)C(=O)N(c2ncccn2)C1c1ccc(Cl)cc1)c1ccco1 (stereo not given),-0.273
8,O=C(NC1CCCCC1)c1ccc(Cl)c(NC(=O)c2ccccc2F)c1,-0.187
9,COc1cccc(/C=N/NC(=O)c2cc3c(OC)cccc3[nH]2)c1OC,-0.332
10,COc1ccccc1-n1c(COc2ccccc2-c2ccccc2)nnc1SCC(=O)c1c(N)n(C)c(=O)n(C)c1=O,-0.138
11,O=C(c1ccc(Cl)c(S(=O)(=O)Nc2ccccc2C(=O)N2CCc3ccccc3C2)c1)N1CCc2ccccc2C1,0.109
12,COc1ccc(N/C(C)=C2/C(=O)C(=O)N(CCO)C2c2ccc([N+](=O)[O-])cc2)cc1 (stereo not given),-0.701
13,O=C(/C=C/c1ccco1)N/C(=C\c1ccccc1)C(=O)NCCc1nc2ccccc2[nH]1,0.322
14,CCn1ncc(C(=O)Nc2ccc(S(=O)(=O)N3CCCC3)cc2)c1C,0.826
15,Cc1ccc(Sc2nc(C)cc(C)c2S(C)(=O)=O)cc1,-0.329
16,COc1ccc2c(c1)cc1n2CCN=C1NCCO,-0.0724
17,COc1cc(O)c(C(C)=O)cc1OC,0.68
18,CCOc1cc(NC(=S)NCC2CCCO2)c(OCC)cc1NC(=O)c1ccccc1C (stereo not given),0.0372
19,Cc1ccc(-c2noc(CCC(=O)Nc3cc(C)ccn3)n2)cc1,-0.445
20,O=C1c2cccc3cccc(c23)C(=O)N1OS(=O)(=O)c1ccc(Cl)cc1,0.123
21,Cc1c(C#N)c2ncn(CCCN(C)C)c(=O)c2n1-c1ccccc1,-0.334
22,O=C(NNC(=O)c1ccc(Cl)cc1Cl)c1ccncc1,0.97
23,Cc1ccc2nc(NC(=O)Cn3nc(C)c([N+](=O)[O-])c3C)sc2c1,-0.0691
24,CS(=O)(=O)N1N=C(c2ccc(Br)cc2)CC1c1ccc2c(c1)OCO2 (stereo not given),-0.311

row,Structure (SMILES),z-score
1,C/C(=N\NS(=O)(=O)c1ccc(Cl)cc1)c1ccc(NC(=O)c2ccco2)cc1,-0.376
2,Cc1cccc(S(=O)(=O)Nc2cccc3c2C(=O)c2ccccc2-3)c1,active: 8.14
3,O=C(Nc1cccc(C(F)(F)F)c1)c1cccnc1,0.0334
4,CCn1c(=NC(=O)CSC(C)=O)sc2ccccc21,active: 3.49
5,CCN(CC)S(=O)(=O)c1ccc(-c2nnc3sc4cccc(C)c4n23)cc1,-0.6
6,Cc1nc2ccccn2c1C(=O)N=Nc1c(O)n(CCC(C)C)c2ccccc12,-0.614
7,Cc1ccc(CNC(=O)c2cn(C3CCCCC3)c(=O)c3c2c2ccccc2n3C)o1,-0.644
8,CCn1c(=O)c(C(=O)CN2c3ccccc3CC2C)c(N)n(Cc2ccccc2)c1=O (stereo not given),-1.25
9,Cc1ccn2cc(-c3cnoc3C)nc2c1,0.218
10,CC[N+](C)(C)CCN(Cc1ccc(Cl)cc1)c1ccccn1,0.423
11,COc1cc(/C=N/N2C(=O)c3ccccc3NC2(C)c2cccc([N+](=O)[O-])c2)cc(Br)c1O (stereo not given),0.0269
12,COc1cccc(-c2cc(N3C(=O)Nc4ccccc4N3O)n[nH]2)c1,-0.0707
13,CCOc1ccccc1OCC(=O)Nc1nnc(C)s1,0.336
14,Cc1ccc(C(=O)N/C(=C\c2ccco2)C(=O)NCc2cccnc2)cc1,-0.256
15,COc1ccc(C2C=C(c3ccccc3)Nc3nc(NC(C)=O)nn32)cc1 (stereo not given),-0.298
16,O=C(Cn1c(=O)sc2ccccc21)NCc1ccccn1,1.29
17,Oc1ccc(N2CCN(C(=S)NCCc3ccccc3)CC2)cc1,-0.0993
18,CCn1c(C)cc(/C=C2\SC(=O)N(CC(=O)Nc3ccc(C)c(C)c3)C2=O)c1C,0.305
19,C=CCNc1oc(COc2ccc(C)cc2)nc1C#N,-0.0504
20,Cn1c(-c2c(N)n(CCCc3ccccc3)c3nc4ccccc4nc23)nc2ccccc21,0.0137
21,O=C(NCc1ccc2c(c1)OCO2)c1ccc(C2SCC(=O)N2Cc2ccco2)cc1 (stereo not given),-0.994
22,Cc1coc2cc3oc(=O)c4c(c3cc12)CCCC4,-0.489
23,CCN(CC)S(=O)(=O)c1cccc(C(=O)NCC2CCCO2)c1 (stereo not given),0.42
24,O=C(N/N=C/c1ccncc1)c1nc(-c2ccccc2)n2c1CCCCC2,-0.271

row,Structure (SMILES),z-score
1,Cc1ccc(NC(=O)C(=O)NC2CCCCC2)cc1,0.276
2,Cc1ccc(CN2C(=O)C3CCCN3c3ccc(C#N)cc32)cc1 (stereo not given),-0.734
3,Cn1c(=O)c2c(-c3ccccc3)n3c4ccccc4ncc3c2n(C)c1=O,-1.64
4,O=C(CCNC(=O)c1ccc(Br)o1)NCc1ccccn1,0.23
5,C/C(=N\Nc1ccc(C(F)(F)F)cc1[N+](=O)[O-])C1CC1,-0.192
6,O=C(COC(=O)/C=C/c1ccco1)Nc1cccc([N+](=O)[O-])c1,1.65
7,O=C(NCc1ccco1)c1sc2cc(F)ccc2c1Cl,-0.935
8,NC(=O)C1(N2CCCCC2)CCN(C(=O)Nc2ccccc2C(F)(F)F)CC1,-0.0409
9,CCOC(=O)c1cccnc1SC(CC)C(=O)NCc1ccco1 (stereo not given),-0.502
10,CCOc1ccc(C2C(C(=O)c3ccco3)=C(O)C(=O)N2CCN(C)C)cc1 (stereo not given),0.0359
11,COC(=O)c1cc(NC(=O)Nc2cc(OC)ccc2OC)cc(C(=O)OC)c1,-0.501
12,CCOc1ccc(/C(O)=C2\C(=O)C(=O)N(CCOCCO)C2c2ccccc2OC)cc1 (stereo not given),-0.683
13,Cc1cc(N2CCN(c3ccccc3)CC2)nc(-c2ccccc2O)n1,-0.813
14,O=C(C(Cc1ccccc1)n1cccc1)N1CCCCC1 (stereo not given),-0.0522
15,CCc1ccc(/C=N/NC(=O)c2cc(C3CC3)nc3ccccc23)s1,1.4
16,CC(C)(C)n1nnnc1CN(Cc1cccnc1)Cc1ccccc1Cl,-0.00735
17,O=S(=O)(Cc1cnc(Cl)s1)c1ccccc1,0.0235
18,CC1=CC2=NCC(O)CN2C=C1 (stereo not given),-0.103
19,CCN1C(=O)C(CC(=O)Nc2ccc(OC)cc2)N(Cc2cccnc2)C1=S (stereo not given),-0.0498
20,CC(=O)NC(CC(=O)Nc1ccc(S(=O)(=O)N2CCCCC2)cc1)c1ccccc1 (stereo not given),-0.123
21,O=c1c2ccccc2[nH]c(=S)n1CC1CCCO1 (stereo not given),0.302
22,COC(=O)Cn1nc(C)c2ccccc2c1=O,-0.0898
